# Measured values from the supplement of paper PMC11417369.
# ± gives the standard deviation of the averaged measurements. The list shows a part of the results.
# Tested on: PfAP2-I AP2 domain 3 (GST-tagged)
# Test: gcPBM binding intensity (ln(normalized median fluorescence intensity)); higher = stronger DNA binding
# How it was run: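 Probes on an Agilent 4 × 180k array were primer-extended, double-stranded and 36 bp long, taken from intergenic genomic regions, with negative controls added. GST-tagged P. falciparum DNA-binding domains from E. coli, about 25 μg on average, were applied to the array for 1 h in 1× PBS containing 1% milk, 0.2 mg/ml BSA, 0.5% salmon testes DNA and 0.03% Triton X-100. Binding intensity, obtained after Alexa488 anti-GST antibody detection and a 488 nm scan, is the highest Masliner-normalised natural-log median intensity across replicate spots of either probe orientation.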
row,Sequence,gcPBM binding intensity (ln)
1,TCATATATATTATACACACACATATATAAATATATA [CACACA_site967],7.87 ± 0.54
2,AAAAAAAAAAAAAAAGCACACATATAAATATGAATA [CACACA_site8391],8.86 ± 0.35
3,ATTCTAAATATGTATATACACACTTTTAATATTCAT [CACACA_site4118],7.92 ± 0.6
4,TTTTTTATTTAAAGTAGTACTTTTTAGAAAACAAAA [XGTACX_site6759],7.68 ± 0.29
5,TTATTTTAAATTAACACATGCATAATATATGTATAT [TGCATGCA_site597],7.78 ± 0.47
6,TTTATGAAACAGTGCACACATAAAAATAAATACATA [CACACA_site5631],10.6 ± 0.59
7,AAAAAAATTTTAAAATGTACAAATTTTAATATATAT [XGTACX_site7628],7.75 ± 0.56
8,TTTTCAAAAATATACACACACATAAATATATGTATA [CACACA_site777],7.55 ± 0.49
9,TTATGAATATTGATGTATAAAAAAATATATATGTTA [XGTACX_negctrl_site390],7.74 ± 0.36
10,AAAGGTTTGCGTTGTGTGCACAAAATAAATATATAA,10.69 ± 0.071
11,GATATATAACTTTTAACACACAAAAAAAAAAAAAAT [CACACA_site7653],7.92 ± 0.29
12,GAAAATTCATAAAAATGTACTTATTATATTATTTAT [XGTACX_site2169],7.45 ± 0.49
13,TAAAATTATGTAATAACACACATATACAATACATAT [CACACA_site1236],7.75 ± 0.61
14,ATATATATATAAAGGAGTACATACATTAAAAAAAAA [XGTACX_site1095],8.97 ± 0.042
15,TCTTATTTAAAAATAGCACACATTATATATATATAT [CACACA_site8916],9.44 ± 0.26
16,AAAAAACATACATACACACACATAAATATATATATT [CACACA_site2699],7.77 ± 0.44
17,TCCTTGTTTGGTTTTTTTTTTTCTTCTTTTTTTTTT [CACACA_negctrl_site1355],7.61 ± 0.58
18,TATGAAACGATATATGTGCACATGAGGGAATATAGA [GTGCAC_site9611],9.91 ± 0.58
19,TTAAATGTTATATATTGTACATATAATATATGTATT [XGTACX_site1492],7.58 ± 0.29
20,ACACATACACATTAGGTGCACATAATTCAATATTAC [GTGCAC_site9862],10.79 ± 0.078
21,CATATAATATATCAATGTACATATATATTTTATAAA [XGTACX_site5901],7.66 ± 0.41
22,TTAGCAACTATTACTACACACATTTTTATATAATTT [CACACA_site1372],7.61 ± 1
23,TAATAAAAAAAGTGCACACACATAATATATATATAT [CACACA_site3340],9.93 ± 0.37

row,Sequence,gcPBM binding intensity (ln)
1,TATAAATCAATATGTACACACATATACATGTTGAAT [CACACA_site7460],7.61 ± 0.35
2,ATTATATACATATATATTGTATATACTATACATATG [XGTACX_negctrl_site545],7.44 ± 0.48
3,ATTGTCAAAACACGCACACACATATACATAATAACA [CACACA_site1742],8.2 ± 0.37
4,ATATATACCTATAACACACACATATTTATATTTATA [CACACA_site7257],7.96 ± 0.63
5,AAATAATATTGAAAAGTGCATATTTTTGTTGATATA,9.15 ± 0.21
6,AAATTTAAATAATGTGCGCATCTTAATATATATAAG [GTGCAC_site9890],8.97 ± 0.7
7,TCTTATAACAAAAAAAAATAAAAAATAAAACTATAT [GTGCAC_negctrl_site11],7.62 ± 0.66
8,CATATAAATAGACACACACACACATATAAATAAATA [CACACA_site7156],8.05 ± 0.17
9,TTTTCTATTTAATTGGTGCACTGATATATACACATA [GTGCAC_site9533],11.3 ± 0.54
10,ATATAACATATTAATAATATATTTATAATATGTTTA [GTGCAC_negctrl_site168],7.43 ± 0.29
11,TTATGTTATATATACACACACAAAAGAAAAAAAAAA [CACACA_site2987],7.96 ± 0.57
12,AGGTTAAAAATAAATACACACATTTGATGTCTGTAT [CACACA_site6596],7.43 ± 0.52
13,TTTTGAGAATATATGGGTACAAATAAATAAAAATAT [XGTACX_site1933],8.14 ± 0.57
14,ATATAAATAAAGAAATATATATATATATATATATAT [GTGCAC_negctrl_site668],9.19 ± 0.42
15,AACGCTTATTAGTTGTTGTATATGTGTTCACATATT [CACACA_negctrl_site379],7.54 ± 0.67
16,AAAAAACACGGACACACACACATATACATACATACA [CACACA_site5470],8.72 ± 0.52
17,ATTTATAGAGCTATATGTACATATATATATATTATT [XGTACX_site3704],7.83 ± 0.43
18,AATATAAATAATGTTAAACACACATACCGATATATA [CACACA_site8869],7.5 ± 0.64
19,AAAAGGTGGAAAAATGCATGCAGGCTATTCTATATA [TGCATGCA_site1034],8.48 ± 1.1
20,TTCCACCAATATATATGTACTTATAATATATATATA [XGTACX_site8700],8.98 ± 0.028
21,AATTACATATAATACTGTACGCTAATAAGAAAAAAA [XGTACX_site7413],8.12 ± 0.19
22,ACACATGTATTTGGTGCATGTTGTTAAAAAAATATT [TGCATGCA_site795],9.37 ± 0.071
